Experimental data from the antibiotic and cytotoxicity screens of Wong et al. (2023).
This is one part of the list.

Columns and labels:
HSkMC = human skeletal muscle cells; assay: cytotoxicity call (relative viability < 0.9); settings: 10 µM
HepG2 = assay: cytotoxicity call (relative viability < 0.9); settings: 10 µM
S. aureus RN4220 = assay: growth inhibition call (relative growth <= 0.2); settings: 50 µM

CCCNC(=O)N1C[C@@H](O)COC[C@@H]2O[C@@H](CC(=O)N3CCN(C)CC3)CC[C@H]21
inactive: cytotoxicity call (HSkMC) | cytotoxicity call (HepG2) | growth inhibition call (S. aureus RN4220)

COc1ccc(NC(=O)N(C)C[C@@H]2Oc3ccc(NC(=O)Nc4ccc(C(F)(F)F)cc4)cc3CC(=O)N([C@@H](C)CO)C[C@@H]2C)cc1
inactive: cytotoxicity call (HSkMC) | cytotoxicity call (HepG2) | growth inhibition call (S. aureus RN4220)

COC(=O)c1nc[nH]c1C(=O)OC
inactive: cytotoxicity call (HSkMC) | cytotoxicity call (HepG2) | growth inhibition call (S. aureus RN4220)

COc1ccc(S(=O)(=O)Nc2ccc3c(c2)C(=O)N([C@H](C)CO)C[C@@H](C)[C@@H](CN(C)C(=O)C2CCCCC2)OCCCC[C@@H](C)O3)cc1
inactive: cytotoxicity call (HSkMC) | cytotoxicity call (HepG2) | growth inhibition call (S. aureus RN4220)

C=CCOC(=O)[C@@H]1[C@H]2C(=O)O[C@H](c3ccccc3)[C@H](c3ccccc3)N2[C@H](c2ccc(OCCOC(=O)[C@H]3C[C@H]4C(=O)N5CCC[C@H]5C(=O)N4[C@H]3c3cccc(OCCO)c3)cc2)[C@@]12C(=O)Nc1ccc(I)cc12
inactive: cytotoxicity call (HSkMC) | cytotoxicity call (HepG2) | growth inhibition call (S. aureus RN4220)

C[C@@H]1CN([C@H](C)CO)S(=O)(=O)c2ccc(C3=CCCC3)cc2O[C@H]1CN(C)S(=O)(=O)c1ccc(F)cc1
inactive: cytotoxicity call (HSkMC) | cytotoxicity call (HepG2) | growth inhibition call (S. aureus RN4220)

C[C@@H]1CN([C@@H](C)CO)C(=O)CCCn2cc(nn2)CO[C@@H]1CN(C)S(=O)(=O)c1cccc(C#N)c1
inactive: cytotoxicity call (HSkMC) | cytotoxicity call (HepG2) | growth inhibition call (S. aureus RN4220)

C[C@@H]1CN([C@H](C)CO)C(=O)c2cc(NC(=O)Nc3ccc4c(c3)OCO4)ccc2O[C@@H](C)CCCCO[C@H]1CN(C)Cc1ccc(C(=O)O)cc1
inactive: cytotoxicity call (HSkMC) | cytotoxicity call (HepG2) | growth inhibition call (S. aureus RN4220)

O=C1C=C(O)C(=O)c2ccccc21
inactive: cytotoxicity call (HSkMC) | cytotoxicity call (HepG2) | growth inhibition call (S. aureus RN4220)

C[C@@H]1CN([C@H](C)CO)C(=O)CCCn2nncc2CO[C@@H]1CN(C)S(=O)(=O)c1ccc(-n2cccn2)cc1
inactive: cytotoxicity call (HSkMC) | cytotoxicity call (HepG2) | growth inhibition call (S. aureus RN4220)

C[C@@H]1CCCCO[C@@H](CN(C)S(C)(=O)=O)[C@@H](C)CN([C@H](C)CO)C(=O)c2cc(NS(=O)(=O)c3cn(C)cn3)ccc2O1
inactive: cytotoxicity call (HSkMC) | cytotoxicity call (HepG2) | growth inhibition call (S. aureus RN4220)

CN1CCN(C(=O)C[C@@H]2C=C[C@H](NC(=O)Nc3ccccc3F)[C@@H](CO)O2)CC1
inactive: cytotoxicity call (HSkMC) | cytotoxicity call (HepG2) | growth inhibition call (S. aureus RN4220)

C[C@@H]1CN([C@@H](C)CO)S(=O)(=O)c2ccc(C#CCN(C)C)cc2O[C@@H]1CN(C)Cc1ccc2c(c1)OCO2
inactive: cytotoxicity call (HSkMC) | cytotoxicity call (HepG2) | growth inhibition call (S. aureus RN4220)

C[C@@H]1CN([C@@H](C)CO)C(=O)c2cc(NS(=O)(=O)c3ccccc3)ccc2O[C@@H](C)CCCCO[C@@H]1CN(C)C(=O)Nc1ccc(F)cc1
inactive: cytotoxicity call (HSkMC) | cytotoxicity call (HepG2) | growth inhibition call (S. aureus RN4220)

C[C@@H]1CN([C@@H](C)CO)C(=O)CCCn2cc(nn2)CO[C@H]1CN(C)C(=O)c1cc(-c2ccccc2)on1
inactive: cytotoxicity call (HSkMC) | cytotoxicity call (HepG2) | growth inhibition call (S. aureus RN4220)

NC/C(=C/F)CCc1ccc(F)cc1
inactive: cytotoxicity call (HSkMC) | cytotoxicity call (HepG2) | growth inhibition call (S. aureus RN4220)

O=C(NCCCN1CCOCC1)c1ccc(Cl)cc1
inactive: cytotoxicity call (HSkMC) | cytotoxicity call (HepG2) | growth inhibition call (S. aureus RN4220)

COc1ccc(S(=O)(=O)N(C)C[C@H]2OCCCC[C@H](C)Oc3ccc(NS(=O)(=O)c4cn(C)cn4)cc3C(=O)N([C@@H](C)CO)C[C@@H]2C)cc1
inactive: cytotoxicity call (HSkMC) | cytotoxicity call (HepG2) | growth inhibition call (S. aureus RN4220)

COc1ccc(S(=O)(=O)N(C)C[C@@H]2Oc3ccc(NC(=O)CCN4CCOCC4)cc3CC(=O)N([C@H](C)CO)C[C@H]2C)cc1
inactive: cytotoxicity call (HSkMC) | cytotoxicity call (HepG2) | growth inhibition call (S. aureus RN4220)

C[C@H]1CN([C@@H](C)CO)C(=O)Cc2cc(NS(=O)(=O)c3cn(C)cn3)ccc2O[C@@H]1CN(C)Cc1ccc(C(=O)Nc2ccccc2N)cc1
inactive: cytotoxicity call (HSkMC) | cytotoxicity call (HepG2) | growth inhibition call (S. aureus RN4220)

C[C@@H]1CCCCO[C@@H](CN(C)Cc2ccc(C(F)(F)F)cc2)[C@@H](C)CN([C@@H](C)CO)C(=O)c2cc(NS(=O)(=O)c3ccc(Cl)cc3)ccc2O1
inactive: cytotoxicity call (HSkMC) | cytotoxicity call (HepG2) | growth inhibition call (S. aureus RN4220)

C[C@H](CO)N1C[C@H](C)[C@@H](CN(C)C(=O)Nc2ccc(F)cc2)Oc2ccc(NS(=O)(=O)c3cn(C)cn3)cc2CC1=O
inactive: cytotoxicity call (HSkMC) | cytotoxicity call (HepG2) | growth inhibition call (S. aureus RN4220)

C[C@@H]1O[C@@H]1P(=O)(O)O
inactive: cytotoxicity call (HSkMC) | cytotoxicity call (HepG2) | growth inhibition call (S. aureus RN4220)

CCCN(C)C[C@H]1OCCCC[C@H](C)Oc2ccc(NC(=O)CCC(F)(F)F)cc2C(=O)N([C@H](C)CO)C[C@H]1C
inactive: cytotoxicity call (HSkMC) | cytotoxicity call (HepG2) | growth inhibition call (S. aureus RN4220)

C[C@@H]1CN([C@H](C)CO)C(=O)c2cc(NS(=O)(=O)c3ccccc3)ccc2O[C@@H]1CN(C)S(=O)(=O)c1ccccc1
inactive: cytotoxicity call (HSkMC) | cytotoxicity call (HepG2) | growth inhibition call (S. aureus RN4220)

CC(=O)N1CCCN(S(=O)(=O)c2cn(C)c(=O)n(C)c2=O)CC1
inactive: cytotoxicity call (HSkMC) | cytotoxicity call (HepG2) | growth inhibition call (S. aureus RN4220)

CN(C)c1cncc(C(=O)O)c1
inactive: cytotoxicity call (HSkMC) | cytotoxicity call (HepG2) | growth inhibition call (S. aureus RN4220)

Cc1noc(C)c1NC(=O)N(C)C[C@H]1Oc2ccc(NS(=O)(=O)c3c(C)noc3C)cc2C(=O)N([C@@H](C)CO)C[C@@H]1C
inactive: cytotoxicity call (HSkMC) | cytotoxicity call (HepG2) | growth inhibition call (S. aureus RN4220)

O=C(C[C@@H]1CC[C@@H]2[C@H](COC[C@H](O)CN2C(=O)Nc2ccc(Cl)c(Cl)c2)O1)NCc1ccc(Cl)c(Cl)c1
inactive: cytotoxicity call (HSkMC) | cytotoxicity call (HepG2) | growth inhibition call (S. aureus RN4220)
